# Laboratory results from PubChem BioAssay AID624296 (National Center for Advancing Translational Sciences (NCATS), 2012).
# “And” between values parts separate entries of the source, which are not always exact repeats. Identical values can stand only once. The whole screen tested about 350,000 compounds, of which about 9,900 (2.8%) were called active. This list was built around the results that the source calls inconclusive (neither active nor inactive); the mix of calls is not that of the screen. Calls follow the shape of the dose curve; as a rule, active = well fitted activation curve with a large enough effect; inconclusive = small, poorly fitted or top-dose-only effect; inactive = no such curve, though single readings can be large or run the other way. Potencies of inconclusive entries are doubtful fits and often do not repeat.
# Assay: A quantitative high throughput screen for small molecules that induce DNA re-replication in MCF 10a normal breast cells. Also: nearly all actives have a fitted effect of over 50% in size.
# Conditions: MCF 10A DNA re-replication, Hoechst nuclear intensity, 48 h; series mostly up to 46.1 µM
# Potency is read from the fitted curve at half-maximal effect; tags tell the direction and shape of the fitted curve.
row,Structure (SMILES),Potency
1,COc1cccc(N2CCN(C(=O)c3oc4ccccc4c3NC(=O)CCc3cc(OC)no3)CC2)c1,inactive
2,COc1cc(S(=O)(=O)N2CCN(c3ccccn3)CC2)ccc1Br,"inconclusive: 5.8 µM [activator, single point]"
3,COc1cc(Cl)c(S(=O)(=O)N2CCOCC2)cc1Cl,"inconclusive: 25.9 µM [activator, partial curve, poor fit]"
4,O=C(O)c1cn(Cc2ccccc2)nc1-c1cccnc1,inactive
5,COC(=O)CCC(=O)Oc1ccc(OC(=O)CCC(=O)OC)cc1,"inconclusive: 29.1 µM [activator, single point]"
6,CCN(CC)S(=O)(=O)c1ccc(NC(=O)CN(c2cccc(F)c2)S(C)(=O)=O)cc1,inactive
7,CCOC(=O)N1CCN(C(=O)C(=O)NNC(=O)COc2ccc(Cl)cc2)CC1,"inconclusive: 11.6 µM [activator, partial curve, poor fit]"
8,COc1ccc(C(O)c2coc3ccc(O)c(CN(C)C)c23)cc1 (stereo not given),"inconclusive: 23.1 µM [activator, single point]"
9,CCc1cc(C(c2ccc(OC)c(OC)c2)N2CCOCC2)c(NC(=O)c2ccccc2)s1 (stereo not given),"inconclusive: 29.1 µM [activator, single point]"
10,CCCCN(C)CC(O)Cn1cc(/C=C/C(=O)c2cccs2)c2ccccc21 (stereo not given),active: 16.4 µM
11,Cc1cc(-c2c(C(=O)N3CCOCC3)c(C)nn2-c2ccccc2)no1,inactive
12,CCCN1CC=C2C(C#N)=C(N)C(C#N)(C#N)C(c3cccc(OC)c3OC)C2C1 (stereo not given),inactive
13,N#Cc1ccc(C(=O)NC2=NCCS2)cc1,"inconclusive: 0.291 µM [activator, full curve, poor fit]"
14,O=C(Nc1ccccc1)c1cccc(S(=O)(=O)Nc2ccccn2)c1,inactive
15,C/C(Cn1nnc([N+](=O)[O-])n1)=N\NC(=O)c1ccccc1Cl,inactive
16,O=S(=O)(Nc1ccccc1)c1ccc(NS(=O)(=O)c2cccs2)cc1,"inconclusive: 6.51 µM [activator, single point]"
17,O=C(CCNC(=O)c1ccccc1Cl)N/N=C\c1ccc(O)cc1,inactive
18,COc1ccccc1NC(=O)CSc1nnnn1-c1ccccc1OC,active: 0.651 µM
19,CCNC(=O)N1CCN(CCCC(c2ccc(F)cc2)c2ccc(F)cc2)CC1,"inconclusive: 37.6 µM [activator, partial curve, poor fit] and inconclusive: 4.6 nM [activator, full curve, poor fit]"
20,O=C(c1ccncc1)c1ccc(N2CCN(C3CC(=O)N(Cc4ccccc4)C3=O)CC2)cc1 (stereo not given),"inconclusive: 29.1 µM [activator, partial curve, poor fit]"
21,O=C(Nc1ccncc1)Nc1ccc(Cl)cc1,inactive
22,Cc1ccc(C)c2nc(SCC(=O)N3CCCc4ccccc43)c(C#N)cc12,"inconclusive: 9.2 µM [activator, partial curve]"
23,Cc1cccc(C(=O)NNC(=S)NC(=O)c2ccccc2)c1,inactive

row,Structure (SMILES),Potency
1,Cc1ccc(NC(=O)NCc2nc3ccccc3n2C)cc1,"inconclusive: 29.1 µM [activator, partial curve, poor fit]"
2,CC1=C(C(=O)OC2CCCC2)C(c2ccc(C)o2)C2=C(CC(c3cccs3)CC2=O)N1 (stereo not given),"inconclusive: 18.4 µM [activator, single point]"
3,CCS(=O)(=O)N1CCC(C(=O)NCCCOC)CC1,"inconclusive: 4.61 µM [activator, full curve, poor fit]"
4,O=C(CCCN=C1NS(=O)(=O)c2ccccc21)OCC(=O)c1ccccc1Cl,active: 3.66 µM
5,Cc1ccc(NC(=S)NNC(=S)NCc2ccccc2)cc1,inactive
6,C=CCNc1nc(-c2sc(NC(C)=O)nc2C)cs1,"inconclusive: 18.4 µM [activator, partial curve, poor fit]"
7,Cc1cccc(NC(=O)C2CCN(C(=O)c3ccccc3C)CC2)n1,inactive
8,C#CCNC(=O)C1=C[C@@H](c2ccccc2)C[C@@H](OCc2ccc(CO)cc2)O1,"inconclusive: 0.116 µM [activator, full curve, poor fit]"
9,CCCn1c(=N)n(CC(=O)c2ccco2)c2ccccc21,inactive
10,CCN(c1ccccc1)S(=O)(=O)c1ccc(Cl)c(NC(=O)CN(C)Cc2cccc(F)c2)c1,"inconclusive: 6.51 µM [activator, partial curve, poor fit]"
11,CCN(CC)CCC(=O)N1c2ccccc2CCc2ccc(NC(=O)OC)cc21,"inconclusive: 16.4 µM [activator, partial curve, poor fit]"
12,O=C(Nc1nc(-c2cc(F)ccc2F)cs1)C1=COCCO1,"inconclusive: 29.1 µM [activator, single point]"
13,Cc1ccccc1OCC(=O)NN1C(=O)C2C3C=CC(O3)C2C1=O (stereo not given),"inconclusive: 6.51 µM [activator, single point]"
14,CC(=O)c1ccc(OCc2cc(C(=O)N3CCC(Oc4ccccc4C)CC3)no2)cc1,"inconclusive: 23.1 µM [activator, partial curve, poor fit]"
15,CC(C)(C)c1ccc(/C=N/NC(=S)NC2CCCCC2)cc1,active: 16.4 µM
16,COc1cc(C#CC#CCN2CCCCC2)ccc1O,"inconclusive: 20.6 µM [activator, single point]"
17,C(#Cc1ccc(C#CCN2CCCC2)cc1)CN1CCCC1,"inconclusive: 11.6 µM [activator, partial curve, poor fit]"
18,Cc1ccc(C(=O)C2CCOC(C)(C)C2)cc1 (stereo not given),inactive
19,COc1ccc(C(=O)NNC(=O)C23CC4CC(CC(C4)C2)C3)c(OC)c1,"inconclusive: 32.6 µM [activator, partial curve, poor fit]"
20,COc1ccc([C@@H]2C[C@H]3CN(Cc4ccccc4OC)C(=O)[C@]34CCCN24)cc1C,inactive
21,O=C(c1ccc(CS(=O)(=O)c2cccc(C(F)(F)F)c2)o1)N1CCN(c2ccccn2)CC1,"inconclusive: 29.1 µM [activator, single point]"
22,C=CCN(CC=C)C(=O)C1CCN(S(=O)(=O)c2ccc(-n3cnnn3)cc2)CC1,inactive
